Measured values taken from patent US20260217835A1 (published 2026).

Tests used:
[1] = target: VHH-Fc with E356K/K392D/D399K/K439E (SEQ ID NO: 587); test: SEC peak area ratio; full-length heavy chain, light chain and VHH-Fc coexpressed in Expi293F, affinity purified
[2] = target: VHH-Fc with K392D/D399K/K409D (SEQ ID NO: 588); test: as above
[3] = target: T1, VHH-Fc with Y349C/E357C/K392D/D399K (SEQ ID NO: 589); test: as above
T1 construct: also called VHH-Fc of Sample No. 308

[4] = target: T2, VHH-Fc with E345R/Q347R/K360D/T366V/D399M/Y407A/K409V (SEQ ID NO: 590); test: as above
T2 construct: also called VHH-Fc of Sample No. 309

[5] = target: T3, VHH-Fc with E356K/K392D/D399K/K409D (SEQ ID NO: 591); test: as above
T3 construct: also called VHH-Fc of Sample No. 310

[6] = target: VHH-Fc with E345R/K360E/D399M/Y407A/K409V (SEQ ID NO: 592); test: as above
[7] = target: VHH-Fc with T350V/L351Y/T366L/K392L/T394W/F405A/Y407V (SEQ ID NO: 593); test: as above
[8] = target: T4, Fc fragment of human IgG1 below the hinge region containing no modification (SEQ ID NO: 62) (human, UniProt P01857 partial chain = IgG part); test: SEC peak area ratio after coexpression of full-length heavy chain, light chain and Fc fragment in Expi293F
T4 construct: One Fc chain is meant as the associating unit; it pairs with itself (homo Fc fragment) or with a full-length heavy chain (heteromultimer); also called WT-Fc fragment

[9] = target: the molecule itself; test: SEC area ratio of heavy chain homodimer; co-expressed with Fc fragment SEQ ID NO 62
[10] = target: the molecule itself; test: SEC peak area ratio after coexpression of full-length heavy chain, light chain and WT Fc fragment in Expi293F, Protein A purified;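 also: chromatogram peaks detected by UV absorbance at 215 nm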
[11] = target: the molecule itself; test: SEC peak area ratio; coexpression of full-length heavy chain, light chain and Fc fragment
[12] = target: the molecule itself; test: SEC area ratio of heavy chain homodimer; co-expressed with Fc fragment SEQ ID NO 102
[13] = target: T5, IgG4 Fc fragment without modification (SEQ ID NO: 102) (Homo sapiens (Human), UniProt P01861 partial chain = IgG part); test: SEC area ratio of heteromultimer after co-expression of full-length heavy chain, light chain and Fc fragment
T5 construct: Fc fragment, IgG4 subclass, no modification

[14] = target: T6, IgG4 Fc fragment without modification (SEQ ID NO: 102) (Homo sapiens (Human), UniProt P01861 partial chain = IgG part); test: SEC peak area ratio after coexpression of full-length heavy chain, light chain and Fc fragment
T6 construct: Unmodified Fc fragment of subclass IgG4, coexpressed with the full-length heavy chain and the light chain; it pairs as a homodimer or with the full-length heavy chain

[15] = target: the molecule itself; test: as above
[16] = target: T7, Fc fragment of human IgG1 below the hinge region containing no modification (SEQ ID NO: 62) (human, UniProt P01857 partial chain = IgG part); test: SEC peak area ratio after coexpression of full-length heavy chain, light chain and WT Fc fragment in Expi293F;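 also: peak area ratios come from chromatograms detected by UV absorbance at 215 nm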
T7 construct: Unmodified human IgG1 Fc fragment coexpressed with each full-length heavy chain and the light chain; it associates through its CH3 interface; also called WT-Fc fragment

[17] = target: T8, IgG2 Fc fragment without modification (SEQ ID NO: 103) (Homo sapiens (Human), UniProt P01859 99-324 = IgG part); test: co-expression of full-length heavy chain, light chain and Fc fragment in Expi293F, affinity purification, SEC peak area ratio;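 also: purified antibodies analysed by size exclusion chromatography with UV detection at 215 nm, each species given as share of total chromatogram peak area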
T8 construct: Fc fragment co-expressed with a full-length heavy chain and the light chain; the associating unit is one Fc chain; also called WT-IgG2 Fc fragment

[18] = target: T4, Fc fragment of human IgG1 below the …; test: SEC peak area ratio of the heteromultimer after coexpression of full-length heavy chain, light chain and Fc fragment

B1: WT-IgG1: full-length heavy chain SEQ ID NO: 1 with light chain SEQ ID NO: 61 (antibody)
heavy: QVQLQESGPGLVRPSQTLSLTCTVSGYSITSDHAWSWVRQPPGRGLEWIGYISYSGITTYNPSLKSRVTMLRDTSKNQFSLRLSSVTAADTAVYYCARSLARTTAMDYWGQGSLVTVSSASTKGPSVFPLAPSSKSTSGGTAALGCLVKDYFPEPVTVSWNSGALTSGVHTFPAVLQSSGLYSLSSVVTVPSSSLGTQTYICNVNHKPSNTKVDKRV[no letters for human IgG1 Fc]
light: DIQMTQSPSSLSASVGDRVTITCRASQDISSYLNWYQQKPGKAPKLLIYYTSRLHSGVPSRFSGSGSGTDFTFTISSLQPEDIATYYCQQGNTLPYTFGQGTKVEIKRTVAAPSVFIFPPSDEQLKSGTASVVCLLNNFYPREAKVQWKVDNALQSGNSQESVTEQDSKDSTYSLSSTLTLSKADYEKHKVYACEVTHQGLSSPVTKSFNRGEC
notes: Unmodified human IgG1 heavy chain, coexpressed with the light chain and a VHH-Fc; the SEC percents tell how the Fc-bearing chains pair
[1]
  Heteromultimer (%): 0%
[2]
  Heteromultimer (%): 0%
[3]
  Heteromultimer (%): 0%
[4]
  Heteromultimer (%): 0%
[5]
  Heteromultimer (%): 0%
[6]
  Heteromultimer (%): 0%
[7]
  Heteromultimer (%): 0%

B2: Full-length human IgG1 heavy chain with T394Y/F405A (SEQ ID NO: 383) with light chain SEQ ID NO: 61 (antibody)
heavy: QVQLQESGPGLVRPSQTLSLTCTVSGYSITSDHAWSWVRQPPGRGLEWIGYISYSGITTYNPSLKSRVTMLRDTSKNQFSLRLSSVTAADTAVYYCARSLARTTAMDYWGQGSLVTVSSASTKGPSVFPLAPSSKSTSGGTAALGCLVKDYFPEPVTVSWNSGALTSGVHTFPAVLQSSGLYSLSSVVTVPSSSLGTQTYICNVNHKPSNTKVDKRV[no letters for human IgG1 Fc with T394Y F405A (EU numbers)]
light: B1 light
notes: also called Sample No. 973
[8]
  Heteromultimer (%): 3.2%

B3: WT IgG1 full-length heavy chain (SEQ ID NO: 1) with light chain (SEQ ID NO: 61) (antibody)
heavy: B1 heavy
light: B1 light
[9]
  Homo full-length heavy chain (%): 28.7%

B4: WT-IgG1 full-length heavy chain (SEQ ID NO: 1) with light chain (SEQ ID NO: 61), Sample No. 1 (antibody)
heavy: B1 heavy
light: B1 light
notes: also called Sample No. 765
[10]
  Homo full-length heavy chain (%): 31.5%

B5: full-length human IgG1 heavy chain without modification (WT-IgG1, SEQ ID NO: 1) paired with light chain SEQ ID NO: 61 (antibody)
heavy: B1 heavy
light: B1 light
notes: also called Sample No. 1
[11]
  Homo full-length heavy chain (%): 31.5%

B6: IgG4 full-length heavy chain without modification (SEQ ID NO: 92) with light chain (SEQ ID NO: 61) (antibody)
heavy: QVQLQESGPGLVRPSQTLSLTCTVSGYSITSDHAWSWVRQPPGRGLEWIGYISYSGITTYNPSLKSRVTMLRDTSKNQFSLRLSSVTAADTAVYYCARSLARTTAMDYWGQGSLVTVSSASTKGPSVFPLAPCSRSTSESTAALGCLVKDYFPEPVTVSWNSGALTSGVHTFPAVLQSSGLYSLSSVVTVPSSSLGTKTYTCNVDHKPSNTKVDKRV[no letters for human IgG4 Fc with S228P (EU numbers)]
light: B1 light
[9]
  Homo full-length heavy chain (%): 46.4%
[12]
  Homo full-length heavy chain (%): 19.4%
[13]
  Heteromultimer (%): 54.3%

B7: IgG1 full-length heavy chain without CH3 modification (SEQ ID NO: 1) with light chain SEQ ID NO: 61 (antibody)
heavy: B1 heavy
light: B1 light
notes: also called WT-IgG1
[14]
  Heteromultimer (%): 55.3%
[15]
  Homo full-length heavy chain (%): 33.8%

B8: Full-length human IgG1 heavy chain with T394H/F405A (SEQ ID NO: 384) with light chain SEQ ID NO: 61 (antibody)
heavy: QVQLQESGPGLVRPSQTLSLTCTVSGYSITSDHAWSWVRQPPGRGLEWIGYISYSGITTYNPSLKSRVTMLRDTSKNQFSLRLSSVTAADTAVYYCARSLARTTAMDYWGQGSLVTVSSASTKGPSVFPLAPSSKSTSGGTAALGCLVKDYFPEPVTVSWNSGALTSGVHTFPAVLQSSGLYSLSSVVTVPSSSLGTQTYICNVNHKPSNTKVDKRV[no letters for human IgG1 Fc with T394H F405A (EU numbers)]
light: B1 light
notes: also called Sample No. 974
[8]
  Heteromultimer (%): 39.4%

B9: Full-length heavy chain with T394Y/F405G (SEQ ID NO: 398) with light chain SEQ ID NO: 61 (antibody, human IgG1, kappa)
heavy: QVQLQESGPGLVRPSQTLSLTCTVSGYSITSDHAWSWVRQPPGRGLEWIGYISYSGITTYNPSLKSRVTMLRDTSKNQFSLRLSSVTAADTAVYYCARSLARTTAMDYWGQGSLVTVSSASTKGPSVFPLAPSSKSTSGGTAALGCLVKDYFPEPVTVSWNSGALTSGVHTFPAVLQSSGLYSLSSVVTVPSSSLGTQTYICNVNHKPSNTKVDKRV[no letters for human IgG1 Fc with T394Y F405G (EU numbers)]
light: B1 light
notes: also called Sample No. 988
[16]
  Heteromultimer (%): 2.3%

B10: Full-length human IgG1 heavy chain with T394Y/F405C (SEQ ID NO: 386) with light chain SEQ ID NO: 61 (antibody)
heavy: QVQLQESGPGLVRPSQTLSLTCTVSGYSITSDHAWSWVRQPPGRGLEWIGYISYSGITTYNPSLKSRVTMLRDTSKNQFSLRLSSVTAADTAVYYCARSLARTTAMDYWGQGSLVTVSSASTKGPSVFPLAPSSKSTSGGTAALGCLVKDYFPEPVTVSWNSGALTSGVHTFPAVLQSSGLYSLSSVVTVPSSSLGTQTYICNVNHKPSNTKVDKRV[no letters for human IgG1 Fc with T394Y F405C (EU numbers)]
light: B1 light
notes: also called Sample No. 590; Sample No. 976
[8]
  Heteromultimer (%): 8.6%

B11: IgG1 full-length heavy chain T394W/F405A (SEQ ID NO: 19) with light chain SEQ ID NO: 61 (antibody)
heavy: QVQLQESGPGLVRPSQTLSLTCTVSGYSITSDHAWSWVRQPPGRGLEWIGYISYSGITTYNPSLKSRVTMLRDTSKNQFSLRLSSVTAADTAVYYCARSLARTTAMDYWGQGSLVTVSSASTKGPSVFPLAPSSKSTSGGTAALGCLVKDYFPEPVTVSWNSGALTSGVHTFPAVLQSSGLYSLSSVVTVPSSSLGTQTYICNVNHKPSNTKVDKRV[no letters for human IgG1 Fc with changes]
light: B1 light
notes: also called Sample No. 220
[17]
  Heteromultimer (%): 0%

B12: Full-length human IgG1 heavy chain with T394F/F405G (SEQ ID NO: 388) with light chain SEQ ID NO: 61 (antibody)
heavy: QVQLQESGPGLVRPSQTLSLTCTVSGYSITSDHAWSWVRQPPGRGLEWIGYISYSGITTYNPSLKSRVTMLRDTSKNQFSLRLSSVTAADTAVYYCARSLARTTAMDYWGQGSLVTVSSASTKGPSVFPLAPSSKSTSGGTAALGCLVKDYFPEPVTVSWNSGALTSGVHTFPAVLQSSGLYSLSSVVTVPSSSLGTQTYICNVNHKPSNTKVDKRV[no letters for human IgG1 Fc with T394F F405G (EU numbers)]
light: B1 light
notes: also called Sample No. 978
[8]
  Heteromultimer (%): 5.6%

B13: Full-length human IgG1 heavy chain with T394W/F405T (SEQ ID NO: 382) with light chain SEQ ID NO: 61 (antibody)
heavy: QVQLQESGPGLVRPSQTLSLTCTVSGYSITSDHAWSWVRQPPGRGLEWIGYISYSGITTYNPSLKSRVTMLRDTSKNQFSLRLSSVTAADTAVYYCARSLARTTAMDYWGQGSLVTVSSASTKGPSVFPLAPSSKSTSGGTAALGCLVKDYFPEPVTVSWNSGALTSGVHTFPAVLQSSGLYSLSSVVTVPSSSLGTQTYICNVNHKPSNTKVDKRV[no letters for human IgG1 Fc with T394W F405T (EU numbers)]
light: B1 light
notes: also called Sample No. 972
[18]
  binding result: no binding

B14: Full-length human IgG1 heavy chain with T394Y/F405T (SEQ ID NO: 385) with light chain SEQ ID NO: 61 (antibody)
heavy: QVQLQESGPGLVRPSQTLSLTCTVSGYSITSDHAWSWVRQPPGRGLEWIGYISYSGITTYNPSLKSRVTMLRDTSKNQFSLRLSSVTAADTAVYYCARSLARTTAMDYWGQGSLVTVSSASTKGPSVFPLAPSSKSTSGGTAALGCLVKDYFPEPVTVSWNSGALTSGVHTFPAVLQSSGLYSLSSVVTVPSSSLGTQTYICNVNHKPSNTKVDKRV[no letters for human IgG1 Fc with T394Y F405T (EU numbers)]
light: B1 light
notes: also called Sample No. 975
[8]
  Heteromultimer (%): 5.2%

B15: Full-length heavy chain with T394Y/F405S (SEQ ID NO: 399) with light chain SEQ ID NO: 61 (antibody, human IgG1, kappa)
heavy: QVQLQESGPGLVRPSQTLSLTCTVSGYSITSDHAWSWVRQPPGRGLEWIGYISYSGITTYNPSLKSRVTMLRDTSKNQFSLRLSSVTAADTAVYYCARSLARTTAMDYWGQGSLVTVSSASTKGPSVFPLAPSSKSTSGGTAALGCLVKDYFPEPVTVSWNSGALTSGVHTFPAVLQSSGLYSLSSVVTVPSSSLGTQTYICNVNHKPSNTKVDKRV[no letters for human IgG1 Fc with T394Y F405S (EU numbers)]
light: B1 light
notes: also called Sample No. 989
[16]
  Heteromultimer (%): 1.5%

B16: Full-length human IgG1 heavy chain with T394W/F405S (SEQ ID NO: 381) with light chain SEQ ID NO: 61 (antibody)
heavy: QVQLQESGPGLVRPSQTLSLTCTVSGYSITSDHAWSWVRQPPGRGLEWIGYISYSGITTYNPSLKSRVTMLRDTSKNQFSLRLSSVTAADTAVYYCARSLARTTAMDYWGQGSLVTVSSASTKGPSVFPLAPSSKSTSGGTAALGCLVKDYFPEPVTVSWNSGALTSGVHTFPAVLQSSGLYSLSSVVTVPSSSLGTQTYICNVNHKPSNTKVDKRV[no letters for human IgG1 Fc with T394W F405S (EU numbers)]
light: B1 light
notes: also called Sample No. 971
[18]
  binding result: no binding
